# Measurements taken from PubChem BioAssay AID651820 (National Center for Advancing Translational Sciences (NCATS), 2012).
# In all, about 340,000 compounds went through this assay and about 12,000 (3.5%) were called active. Inconclusive results, whose numbers are uncertain, are shown with a selection of clear calls. Calls come from the whole dose curve; as a rule, active = well fitted inhibition curve with a large enough effect; inconclusive = small, poorly fitted or top-dose-only effect, or another doubt; inactive = no such curve, though single readings can be large or run the other way. Potencies of inconclusive entries are left out as doubtful fits. More than one record can exist for a structure, and the calls need not agree.
# Test: qHTS Assay for Inhibitors of Hepatitis C Virus (HCV)
# Settings: Huh7.5.1 HCVcc-Cre (HCVcc is cell-culture hepatitis C virus) infection, luciferase reporter, 44 h; activity change, negative = inhibition: at 41.8 µM (top of the series) unless noted
# Outline: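 Infectious HCVcc-Cre (~0.5 moi) was added to cells just after compound, with cells seeded 4 h earlier at 1,000 per well. Luciferase activity after 44 h culture reported infection; substrate was incubated 15 min at room temperature before reading.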
# % is set by controls: 0 for no effect and ±100 for the full control effect; potency is the fitted concentration of half-maximal effect; tags give direction and shape of the fitted curve.
Structure (SMILES),Potency,"activity change, negative = inhibition"
O=C(c1ccccc1Br)N1CCN(Cc2ccc3c(c2)OCO3)CC1,"inconclusive [inhibitor, single point]",
CCN(CC)CCn1c2c(c(SCC(=O)Nc3nc4ccccc4s3)nc1=O)CCC2,"inconclusive [inhibitor, partial curve]",
COc1cc(OC)cc(-c2nnc(NC(=O)CCS(=O)(=O)c3ccccc3)o2)c1,,inactive: 10.8% [at 8.37 µM]
CCc1ccc(C(=O)NNc2cc(Cl)ccc2Cl)cc1,"inconclusive [inhibitor, partial curve]",
CCOC(=O)C1=C(C)N(C)C(C)=C(C(=O)OCC)C1c1ccsc1,"inconclusive [inhibitor, single point]",
Cn1cc(CNC(=O)c2sc3cccc(Cl)c3c2Cl)cn1,"inconclusive [inhibitor, single point]",
CC(Sc1ccc(Cl)cc1)C(=O)NNC(=O)c1ccccc1O (centres undefined),"inconclusive [inhibitor, single point]",
O=C(N/N=C/C=C/c1ccccc1)c1cccc(Br)c1,"inconclusive [inhibitor, partial curve]",
COc1ccc(C(=O)Nc2cc(OC)ccc2OC)cc1,active: 11.2 µM,
CNC(=S)N1C2CCCC1CC(NC(=O)c1ccc(F)cc1)C2 (centres undefined),inactive,
N[C@@H](Cc1ccccc1)C(=O)N1CCOCC1,inactive,
c1ccc2nc(OCCN3CC3)ccc2c1,"inconclusive [inhibitor, partial curve]",
COc1cc2c(cc1OC)CN(CC(=O)Nc1ccccc1SC)CC2,"inconclusive [inhibitor, partial curve]",
Cc1cccnc1Nc1ncnc(N)c1[N+](=O)[O-],inactive,
COc1nc(-c2ccccc2)cc(-c2ccccc2)n1,"inconclusive [inhibitor, single point]",
CCC(=O)Nc1nonc1-c1nc2ccccc2n1CC(C)C,"inconclusive [inhibitor, full curve]",
COc1cc2c(cc1OC)CN(Cc1cc(=O)oc3cc(C)c(Cl)cc13)CC2,"inconclusive [inhibitor, partial curve]",
COc1ccccc1C(=O)Nc1nc(-c2ccc(S(=O)(=O)N3CCOCC3)cc2)cs1,active: 3.55 µM,
CC1CC(=O)N(c2ccc(NCCc3ccc(O)cc3)c([N+](=O)[O-])c2)C1=O (centres undefined),"inconclusive [inhibitor, partial curve]",
Cc1ccc(OCc2nnc(SCC(=O)c3ccccc3)n2-c2ccccc2)cc1,"inconclusive [inhibitor, single point]",
CCOC(=O)Cc1csc(NC(=O)c2ccc3ncsc3c2)n1,"inconclusive [inhibitor, partial curve]",
COC(=O)c1ccc(/C=C/c2c(-c3ccsc3)oc3ccc(N4CCOCC4)cc23)cc1,inactive,
COc1ccc(C(=O)Nc2cc(C)on2)cc1OC,inactive,
CCOC(=O)C1C(c2cc(OC)c(O)c(OC)c2)NC(=S)NC1(O)C(F)(F)F (centres undefined),inactive,
O=C(CCCN1C(=O)/C(=C/c2ccccc2Cl)SC1=S)N1CCOCC1,"inconclusive [inhibitor, single point]",

Structure (SMILES),Potency,"activity change, negative = inhibition"
O=c1c2ccccc2nnn1CSc1nc2cc(Cl)ccc2c(=O)n1Cc1ccco1,inactive,
Cc1ccc(-c2noc(CCC(=O)N3CCN(c4cccc(C(F)(F)F)c4)CC3)n2)cc1,active: 11.2 µM,
COc1ccc(N(CC(=O)N/N=C/c2ccc(OC)c(OC)c2)S(=O)(=O)c2ccccc2)cc1,"inconclusive [inhibitor, single point]",
COc1ccc(NS(=O)(=O)c2ccc(Cl)c(NC(=O)c3ccccc3F)c2)cc1,"inconclusive [inhibitor, partial curve]",
CCN1C(=O)C(=O)N(CC(=O)N2CCC(C)Sc3ccccc32)C1=O (centres undefined),inactive,
CC1CC2=C(NC(=S)NC2c2ccccc2F)/C(=C/c2ccccc2F)C1 (centres undefined),"inconclusive [inhibitor, full curve]",
CCOc1ccc(C(C(=O)NC2CCCC2)N(Cc2ccccc2)C(=O)c2nsc(Cl)c2Cl)cc1 (centres undefined),"inconclusive [inhibitor, single point]",
NC(=O)CNC1CC(=O)N(CCc2ccccc2)C1=O (centres undefined),inactive,
COc1ccc(-c2cc(C(=O)Nc3ccc(Cl)cc3Cl)c3ccccc3n2)cc1OC,inactive,
C=CCn1cnc2scc(-c3ccc(C)cc3)c2c1=O,"inconclusive [inhibitor, partial curve]",
O=c1ccc2c(o1)/C(=C/C=C(Cl)Cl)CCC2,active: 15.8 µM,
CC(C)CN1CCC(CNC(=O)CCc2nnc(Cc3c[nH]c4ccccc34)o2)CC1,"inconclusive [inhibitor, single point]",
Cc1ccc(S(=O)(=O)/N=C2\C(=O)c3ccccc3C([O-])=C2n2cc[n+](CCC(C)C)c2)cc1,active: 17.8 µM,
O=C(N/N=C/c1ccc[nH]1)c1cc2ccccc2cc1O,"inconclusive [inhibitor, single point]",
COC(=O)c1ccccc1C(=O)N(c1ccccc1)c1ccccc1,inactive,
CC1CCCC(C)N1C(=O)COC(=O)c1cc(=O)[nH]c2ccccc12 (centres undefined),"inconclusive [inhibitor, partial curve]",
c1coc(-c2ccnc3nc(-n4cccc4)nn23)c1,"inconclusive [inhibitor, single point]",
COc1cc(OC)cc(C(=O)NC(=S)Nc2ccc(N3CCCC3)cc2)c1,inactive,
CC(C)Cn1cnc2c(c1=N)C(c1ccccc1)C1=C(CC(C)(C)CC1=O)O2 (centres undefined),"inconclusive [inhibitor, single point]",
COc1ccc(-c2cc(C(=O)N(C)Cc3nc4ccccc4c(=O)[nH]3)c3ccccc3n2)cc1OC,"inconclusive [inhibitor, single point]",
CCOC(=O)Cn1c(=O)oc2cc(S(=O)(=O)NCCC(C)C)ccc21,inactive,
O=C(COc1ccccc1Cl)NCCc1ccc2c(c1)OCCO2,"inconclusive [inhibitor, full curve]",
N#C/C(=C\c1cccc([N+](=O)[O-])c1)c1nnc2n1CCCCC2,inactive,
COc1ccc(Oc2c(Cl)cnn(-c3ccc(Cl)c(Cl)c3)c2=O)cc1,"inconclusive [inhibitor, single point]",
CC(C)(C)CC(C)(C)NC(=O)Nc1cccc([N+](=O)[O-])c1,"inconclusive [inhibitor, single point]",

Structure (SMILES),Potency,"activity change, negative = inhibition"
CN1C(=O)C(=Cc2cccnc2)C(=O)N(C)C1=O,inactive,
COC(=O)c1ccc(OCCN2C3=NCCN3c3ccccc32)cc1,"inconclusive [inhibitor, single point]",
Fc1cnc(Cl)nc1N1CCN(c2ccccc2)CC1,inactive,
COc1ccc(C(C)(C)C)cc1NS(=O)(=O)c1cccc2cccnc12,"inconclusive [inhibitor, single point]",
CCOC(=O)c1cn(-c2ccccc2)nc1-c1cccnc1,active: 10 µM,
CCCCOC(=O)Nc1cc(C)c(Cl)cc1OC,"inconclusive [inhibitor, full curve, poor fit]",
COc1cc(C2CC(=O)c3c([nH]c(C(=O)OCCOC(C)C)c3C)C2)cc(OC)c1OC (centres undefined),"inconclusive [inhibitor, full curve]",
COc1ccc(C(C(=O)NC2CCCCC2)N(C(=O)CCl)c2cccc(Cl)c2)cc1 (centres undefined),active: 1.58 µM,
COc1ccc(CC(=O)Nc2ccc3c(c2)CCC3)cc1OC,"inconclusive [inhibitor, single point]",
CN(CC(=O)Nc1ccc(Cl)c(Cl)c1)C(=O)C12CC3CC(CC(C3)C1)C2,"inconclusive [inhibitor, single point]",
Cc1ccc(C(=O)C[n+]2ccc3ccccc3c2)cc1,"inconclusive [inhibitor, single point]",
CCN(CCCNC(=O)C1CCC(=O)N1C1CCCC1)c1cccc(C)c1 (centres undefined),inactive,
CCc1cc2c(=O)c(-c3nc4ccccc4[nH]3)coc2c(CN2CCCCC2)c1O,"inconclusive [inhibitor, partial curve]",
O=[N+]([O-])c1cc(-c2ccc(C(=S)N3CCOCC3)o2)ccc1Cl,"inconclusive [inhibitor, single point]",
O=C(CN1C(=O)c2ccccc2C1=O)Nc1cc(C(=O)O)cc(C(=O)O)c1,inactive,
COc1ccc(Br)cc1/C=N/N1CCN(Cc2ccccc2Cl)CC1,"inconclusive [inhibitor, single point]",
CC(C)n1c(C(O)c2ccc3c(c2)OCO3)nc2ccccc21 (centres undefined),inactive,
CCN1C(=O)/C(=C/c2cn(-c3ccccc3)nc2-c2cccnc2)SC1=S,"inconclusive [inhibitor, single point]",
CCc1ccc(S(=O)(=O)N2CCN(C(=O)c3cccnc3)CC2)cc1,inactive,
Clc1ccc(-n2c(SC/C=C/c3ccccc3)nnc2-c2cccnc2)cc1,"inconclusive [inhibitor, single point]",
N#Cc1c(-c2ccc(F)cc2)noc1N,inactive,
Cc1c(C(=O)NCc2ccc3c(c2)OCO3)oc2ccc(Br)cc12,inactive,
Cc1cccc(N(C(=O)CNC(=O)c2ccco2)C(C(=O)NC2CCCC2)c2cccnc2)c1C (centres undefined),inactive,
Cc1ccc(N2CC(C(=O)Nc3ccc(N(C)C)cc3)CC2=O)cc1C (centres undefined),"inconclusive [inhibitor, single point]",
